Structures are written as SMILES. The list shows a part of the results.

The test system of the first assay is HSkMC (human skeletal muscle cells). The assay can be described thus: cytotoxicity call (relative viability < 0.9). The conditions noted are these: 10 µM.
For `C[C@H](CO)N1C[C@H](C)[C@H](CN(C)S(C)(=O)=O)Oc2ccc(NC(=O)c3ccncc3)cc2CC1=O`, the cytotoxicity call was “inactive”.

Turning to `COC1=C2C[C@H](C)C[C@H](OC)[C@@H](O)[C@H](C)/C=C(\C)[C@H](OC(N)=O)[C@H](OC)/C=C/C=C(\C)C(=O)NC(=CC1=O)C2=O`, the cytotoxicity call was “inactive”.

In the case of `Cc1noc(C)c1NC(=O)N(C)C[C@@H]1Oc2ncc(C#CCN(C)C)cc2C(=O)N([C@@H](C)CO)C[C@H]1C`, the cytotoxicity call is “inactive”.

Take `OS(=O)(=O)c1ccc(cc1)/C/1=C\2/N/C(=C(\C3=N/C(=C(/c4ccc(cc4)S(=O)(=O)O)c4ccc([nH]4)/C(=C\4/C=CC1=N4)c1ccc(cc1)S(=O)(=O)O)C=C3)c1ccc(cc1)S(=O)(=O)O)C=C2`: the cytotoxicity call is “inactive”.

Consider `CCc1nc2ccccc2nc1CC`, for which the cytotoxicity call was “inactive”.

Take `C[C@@H]1CN([C@H](C)CO)C(=O)c2cccc(NS(=O)(=O)c3ccc(F)cc3)c2O[C@@H]1CN(C)Cc1ccncc1`: the cytotoxicity call is “inactive”.

Consider `COc1ccc(S(=O)(=O)N(C)C[C@H]2OCCCC[C@H](C)Oc3ccc(NS(C)(=O)=O)cc3C(=O)N([C@@H](C)CO)C[C@H]2C)cc1`, for which the cytotoxicity call was “inactive”.

For `C[C@@H]1CN([C@@H](C)CO)C(=O)c2cc(NS(=O)(=O)c3ccc(F)cc3)ccc2O[C@@H](C)CCCCO[C@H]1CN(C)Cc1ccc(C(=O)O)cc1`, the cytotoxicity call was “inactive”.

In the case of `CO[C@@H]1CN(C)C(=O)c2cc(NS(=O)(=O)CC(F)(F)F)ccc2OC[C@H](C)N(Cc2cccnc2)C[C@@H]1C`, the cytotoxicity call was “inactive”.

In the case of `N#C[C@@H]1C[C@@H]2C[C@@H]2N1C(=O)[C@@H](N)[C@@]12C[C@@H]3C[C@@H](C[C@@](O)(C3)C1)C2`, the cytotoxicity call was “inactive”.

For the next assay, the system named is HepG2. Nature of the assay: cytotoxicity call (relative viability < 0.9). The conditions noted are these: 10 µM.
Consider `C[C@H](CO)N1C[C@H](C)[C@@H](CN(C)Cc2ccncc2)Oc2c(NC(=O)Nc3ccc(C(F)(F)F)cc3)cccc2C1=O`, for which the cytotoxicity call was “inactive”.

As for `Cc1noc(C)c1NC(=O)Nc1ccc2c(c1)C(=O)N([C@@H](C)CO)C[C@H](C)[C@H](CN(C)S(=O)(=O)c1cn(C)cn1)O2`, the cytotoxicity call was “inactive”.

As for `NC(CC(=O)O)C(=O)O` (centres undefined), the cytotoxicity call was “inactive”.

As to `Cc1cc(C(=O)Nc2cccc3c2O[C@@H](CN(C)Cc2ccncc2)[C@H](C)CN([C@@H](C)CO)C3=O)n(C)n1`, the cytotoxicity call is “inactive”.

Regarding `Cc1ccc(S(=O)(=O)Nc2ccc3c(c2)C(=O)N([C@@H](C)CO)C[C@@H](C)[C@@H](CN(C)Cc2ccc(C(=O)O)cc2)OCCCC[C@@H](C)O3)cc1`, the cytotoxicity call is “inactive”.

With `N[C@@H](Cc1ccc2nonc2c1)C(=O)O`, the cytotoxicity call is “inactive”.

In the case of `CC(C)NC(=O)N(C)C[C@H]1Oc2c(NC(=O)C3CCOCC3)cccc2C(=O)N([C@H](C)CO)C[C@H]1C`, the cytotoxicity call is “inactive”.

`C[C@@H]1CCCCO[C@H](CN(C)C(=O)Nc2ccc(F)cc2)[C@H](C)CN([C@@H](C)CO)C(=O)c2cc(NC(=O)CCCN(C)C)ccc2O1`: the cytotoxicity call is “inactive”.

Consider `COc1ccc(NC(=O)Nc2ccc3c(c2)C(=O)N([C@H](C)CO)C[C@H](C)[C@H](CN(C)S(=O)(=O)c2cn(C)cn2)O3)cc1`, for which the cytotoxicity call is “inactive”.

As for `Cc1ccc(S(=O)(=O)N(C)C[C@H]2Oc3ccc(NC(=O)CCN4CCOCC4)cc3CC(=O)N([C@H](C)CO)C[C@H]2C)cc1`, the cytotoxicity call is “inactive”.

In the case of `C[C@H]1CN([C@@H](C)CO)C(=O)Cc2cc(NC(=O)Nc3ccc(F)cc3)ccc2O[C@H]1CN(C)C(=O)Nc1cccc2ccccc12`, the cytotoxicity call was “inactive”.

Turning to `O=C(CCc1ccc(O)cc1)c1c(O)cc(O)cc1O`, the cytotoxicity call was “inactive”.

On to `CC(C)NC(=O)Nc1ccc2c(c1)C(=O)N([C@H](C)CO)C[C@@H](C)[C@H](CN(C)Cc1ccc(Cl)c(Cl)c1)OCCCC[C@H](C)O2`, for which the cytotoxicity call was “inactive”.

Regarding `C[C@@H]1CN([C@H](C)CO)C(=O)c2cc(NS(=O)(=O)c3ccccc3)ccc2O[C@@H](C)CCCCO[C@H]1CN(C)Cc1ccc(C(F)(F)F)cc1`, the cytotoxicity call is “active”.

With `C[C@@H]1CN([C@H](C)CO)C(=O)c2cc(NC(=O)CCC(F)(F)F)ccc2O[C@@H]1CN(C)Cc1ccc(C(=O)Nc2ccccc2N)cc1`, the cytotoxicity call is “inactive”.

For `O=C(C[C@@H]1C[C@@H]2c3cc(NS(=O)(=O)c4ccc(F)cc4)ccc3O[C@@H]2[C@H](CO)O1)NC1CCCCC1`, the cytotoxicity call is “inactive”.

For the compound `COCC#Cc1ccc2c(c1)O[C@H](CN(C)C(=O)Nc1ccccc1F)[C@@H](C)CN([C@@H](C)CO)S2(=O)=O`, the cytotoxicity call was “inactive”.

As for `COc1ccc(CN(C)C[C@H]2OCCCC[C@H](C)Oc3ccc(NC(=O)Nc4ccc5c(c4)OCO5)cc3C(=O)N([C@H](C)CO)C[C@@H]2C)cc1`, the cytotoxicity call is “inactive”.

As for `C[C@H]1CN([C@@H](C)CO)C(=O)c2cccc(NC(=O)c3nc4ccccc4s3)c2O[C@@H]1CN(C)Cc1ccc(C(F)(F)F)cc1`, the cytotoxicity call is “inactive”.

Source of the values: the antibiotic and cytotoxicity screens of Wong et al. (2023).
